This is one part of the list.
T1: UNK ZnF1-3 (human, UniProt Q9C0B0 31-174)
T1 sequence: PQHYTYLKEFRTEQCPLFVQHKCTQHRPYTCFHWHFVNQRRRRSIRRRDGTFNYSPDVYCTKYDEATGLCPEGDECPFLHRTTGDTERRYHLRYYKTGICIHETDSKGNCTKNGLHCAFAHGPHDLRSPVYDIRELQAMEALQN

B1: chr8:95500983:95500984:-_ENSG00000164944_ENST00000437199|hu_hu|hu_hu_hu_mus_True|1_78 (ssRNA)
RNA: GGGAGUUCUACAGUCCGACGAUCAGAACACAUCUAUCGAGUAAAGGACCGUACAUGGACGACCUCUCCACUGCCUCCACUAACAAACUUUCCUCUCGAGCCUCCACUGCCGCUAUUUGUACUAGCCCAGGACGGUCCCAAGUCCAACAGAGGAUUGAGCAUCA
B2: 60553095_60555315_1633_CDS_ENSMUSG00000026014_ENSMUST00000140485|mouse|control|control (ssRNA)
RNA: GGGAGUUCUACAGUCCGACGAUCCUGAUGCAGGGUCCUUGCAUCAUCACAGCAAAGGUACUUGAUAUACUGAGACUUCUUCUGGAUCUGUGGGUGCUUUAAUGCCAGGCAGCAGUCUGUGGGUGCUUUGUAUUUGUUCCGAUACAACAGAGGAUUGAGCAUCA
B3: chr18:35732044:35732045:+_ENSMUSG00000037236_ENSMUST00000166793|perfect_dup|FALSE|FALSE (ssRNA)
RNA: GGGAGUUCUACAGUCCGACGAUCGAUUUGGGGCAAAUUCUCAGGAGUAAUCUUGUCCUCUGGAUAACGACUCAGUUCAUCUAAGUCUCUAGCAGACAGACCAAAGCUGGCCAAAAUGUUACUGGCCUGGUCUGCAUCUCCACGCAACAGAGGAUUGAGCAUCA
B4: 92600466_92600665_606_CDS_ENSG00000165934_ENST00000298875|human|control|control (ssRNA)
RNA: GGGAGUUCUACAGUCCGACGAUCCUGUAUUUUAUCAAAGGCUGCAUCCACAUCAUCUAAUGUAAAGAGUGUAAAAUCUUCUGUAUUGUGUCGAGACUGAUAAAGAUCAUACAUGAACAUCUGUCCCAUUUUAUAAACAGGAAUCAACAGAGGAUUGAGCAUCA
B5: chr10:33214929:33214930:-_ENSG00000150093_ENST00000302278|hu_hu|hu_hu_hu_mus_True|18_108 (ssRNA)
RNA: GGGAGUUCUACAGUCCGACGAUCAACAAGUUCAUUAAAAAACUCUCCUCUGUCAGUAAGACUAAGCACAUUUUUGUAGCUAAAUGGGCUGGUGCAGUUUUGUUCACUUGUACAAGGGUUCCUGAGCUUUGCUGGGGUUGUGCUCAACAGAGGAUUGAGCAUCA
B6: chr7:75932113:75932114:+_ENSG00000106211_ENST00000248553|hu_hu|hu_hu_hu_mus_False|78_88 (ssRNA)
RNA: GGGAGUUCUACAGUCCGACGAUCCUGCGACCACUCAUCGGGCAACCGGGGCAGCCCGAAGGCCUGGUCGAAGAGGCGGCUGUGUGCAGGGUACCAGUCCCGGAAUGGUUCCCAGCUCGGGCUCCGCAGCAGCGAGAAGGGCACCAACAGAGGAUUGAGCAUCA
B7: chr1:39494564:39494565:+_ENSG00000168653_ENST00000372967|hu_hu|hu_hu_hu_mus_True|28_68 (ssRNA)
RNA: GGGAGUUCUACAGUCCGACGAUCAUGCAUUCGCCUCAUCGUUUUGUACCGAAGCAAGCACUCUUCGAAAUCAUCAUACUCUAUCUUGCACUCCUUUUUCGCCCGGGUAUAACCGAUCCCGUGUGCACACUCUAUCCACUCUUUCAACAGAGGAUUGAGCAUCA
B8: chr15:64980993:64980994:-_ENSG00000180304_ENST00000326005|hu_mus|FALSE|FALSE (ssRNA)
RNA: GGGAGUUCUACAGUCCGACGAUCAAACCAUAAACAUCACAUCUGGCCGAGAGGGGACACAGGGAUGACCUGGACGCACAAUCUCAAAGCCCAAGAAGCUGAACGUCUUCAGGAGUGGAGCUCUGUCUUCCCGGCCCUUCCUGACAACAGAGGAUUGAGCAUCA
B9: chr11:77336104:77336105:-_ENSG00000074201_ENST00000525064|hu_mus|hu_hu_hu_mus_False|8_108 (ssRNA)
RNA: GGGAGUUCUACAGUCCGACGAUCCUCGCACAUUGCAGUGAACAUCGCCUCCAAUGCUGACUUAUCACUGGGCACAAAUCGAAAUUCAGAAAUGGGUUCAACAUCAUCAUUGUCUUCCUCAUCUUCAUCAUCAGCAAGUUCUUUCAACAGAGGAUUGAGCAUCA
B10: 68598220_68598340_1625_CDS_ENSG00000184939_ENST00000398253|human|control|control (ssRNA)
RNA: GGGAGUUCUACAGUCCGACGAUCCUCUCCAGUGUGGGUUCUCUCAUGUUGAGUAAGCGAUGAGCGUCGACUAAAGGCUUCUCCACACUCAUUACAUUCAUAGGGUUUCUCUCCAGUAUGAAUUCUGUGAUGCUCUAUGAAACUCAACAGAGGAUUGAGCAUCA
B11: 32336899_32338655_989_CDS_ENSMUSG00000027665_ENSMUST00000108243|mouse|control|control (ssRNA)
RNA: GGGAGUUCUACAGUCCGACGAUCCCUCCCCAGCAUUAUACAGCUUCUUAUGUACUUGUACUGACUCAGAGGGUACUUUUCCAGGAAGUAUUCGUCACAGCCACACACUUUCAGAAUAUACUUGCCCUGAUAUUCUAAGACACACAACAGAGGAUUGAGCAUCA
B12: chr11:70698419:70698420:+_ENSMUSG00000020817_ENSMUST00000076270|mus_hu|FALSE|FALSE (ssRNA)
RNA: GGGAGUUCUACAGUCCGACGAUCUUUCAUAACAGCCUGAAGUGAAGCAACUUCUUCUCUCCACUGUCUUUUCACUUCAUCUAUAGCUUCUUGCUUGGUGUUCUCAGAGACUGUGGCAAUCGCCUUAAUAUUCUCCAUCUCUGCCAACAGAGGAUUGAGCAUCA
B13: chr11:60965468:60965469:-_ENSMUSG00000042506_ENSMUST00000041683|mus_hu|FALSE|FALSE (ssRNA)
RNA: GGGAGUUCUACAGUCCGACGAUCGUCUCCAACCACAGCACAGUCAUUGGAAUUUUUUUCUUCAUUUUUAUUUUCAAACUUACAGUAAACAAAACAAUCACUUAAAUUGUCAAAAGAACAGCAAUUUUACACAAUGAAGAGCAUCAACAGAGGAUUGAGCAUCA
B14: chr10:33190432:33190433:-_ENSG00000150093_ENST00000302278|hu_mus|hu_hu_hu_mus_True|8_78 (ssRNA)
RNA: GGGAGUUCUACAGUCCGACGAUCUACAUUUUCCAAACCUGCAUGUGAAUAAAACCCUGGCAAUAUUGCCCCAAAACUACCCUACUGUGACUAAGAUGCUGCUGCUGUGAGCUUGGUGUUGCAAAAUUUUGCACGGGAGGAUUCCAACAGAGGAUUGAGCAUCA

The binders below were run against T1, UNK ZnF1-3 (assay: nsRBNS (natural sequence RNA bind-n-seq); RBNS binding buffer (assumed for nsRBNS): 25 mM Tris pH 7.5, 150 mM KCl, 3 mM MgCl2, 0.01% Triton X-100, 500 ug/ml BSA, 20 U/ml SUPERase-In, 4 C; UNK is unkempt and MSI1 is Musashi-1; names of the RNAs are library labels; protein concentration not given here; high values mean tight binding).

Row | Binder | binding signal [enrichment R]
1 | B1 | 1.3
2 | B2 | 0.741
3 | B3 | 0.399
4 | B4 | 1.01
5 | B5 | 1.34
6 | B6 | 1.22
7 | B7 | 0.701
8 | B8 | 1.27
9 | B9 | 0.953
10 | B10 | 0.54
11 | B11 | 1.39
12 | B12 | 0.273
13 | B13 | 1.32
14 | B14 | 1.33

Reference: PMC12136788
